Reference: patent US20260234160A1, “NEW SUBSTITUTED QUINOLINE COMPOUNDS FOR COMBATITNG PHYTOPATHOGENIC FUNGI” (BASF SE, priority 2023, published 2026)
Some results were stated once for a whole list of compounds, not compound by compound.

Key:
[1] = tested on: Botrytis cinerea; assay: Activity against the grey mold Botrytis cinerea in the microtiterplate test; type: cell-based; conditions: 31 ppm, MTP, 405 nm, 7 days after inoculation
Procedure: The active compounds were formulated separately as a stock solution having a concentration of 10000 ppm in dimethyl sulfoxide.
The stock solutions were mixed according to the ratio, pipetted onto a micro titer plate (MTP) and diluted with water to the stated concentrations. A spore suspension of Botrytis cinerea in an aqueous biomalt or yeast-bactopeptone-sodium acetate solution was then added. The plates were placed in a water vapor-saturated chamber at a temperature of 18° C. Using an absorption photometer, the MTPs were measured at 405 nm 7 days after the inoculation.

[2] = tested on: Cercospora beticula; assay: Activity against Cercospora beticula in the microtiterplate test; type: cell-based; conditions: 31 ppm, MTP, relative to active compound-free control (100%)
[3] = tested on: Cercospora zea maydis; assay: Activity against Cercospora zea maydis in the microtiterplate test; type: cell-based; conditions: 31 ppm, MTP, relative to active compound-free control (100%)
[4] = tested on: Cercospora sojina; assay: Activity against Cercospora sojina in the microtiterplate test; type: cell-based; conditions: 31 ppm, MTP, relative to active compound-free control (100%)
[5] = tested on: Botrytis cinerea; assay: Preventative fungicidal control of Botrytis cinerea on leaves of green pepper (green house); type: in vivo; conditions: inoculated next day, assessed after 5 days, untreated 90%
[6] = tested on: Sclerotinia sclerotiorum; assay: Preventative fungicidal control of white mold on oilseed rape caused by Sclerotinia sclerotiorum (green house); type: in vivo; conditions: 125 ppm, assessed after 14 days, untreated 90%
Procedure: The compound was dissolved in a mixture of acetone and/or dimethylsulfoxide and the wetting agent/emulsifier Wettol, which is based on ethoxylated alkylphenoles, in a ratio (volume) solvent-emulsifier of 99 to 1 to give a total volume of 5 ml. Subsequently, water was added to total volume of 100 ml.
This stock solution was then diluted with the described solvent-emulsifier-water mixture to the final concentration given in the table below.
Oilseed rapes were grown in pots to the 13 to 14 leaf stage. These plants were sprayed to runoff with previously described spray solution, containing the concentration of active ingredient or their mixture mentioned in the table below.
The plants could air-dry. The next day the applicated rape petals were fixed with 25 μl of 2.5% methylcellulose on leaf 1 and 2. 25 μl of a spore suspension of Sclerotinia sclerotiorum was pipetted on each fixed rape petal. After 14 days at 20° C. and a relative humidity of 60% the extent of fungal attack on the leaves was visually assessed as % diseased leaf area.

[7] = tested on: Botrytis cinerea; assay: Long lasting control of Botrytis cinerea on leaves of green pepper (green house); type: in vivo; conditions: inoculated 7 days after spraying, assessed after 5 days, untreated 90%
[8] = tested on: Septoria tritici; assay: Activity against leaf blotch on wheat caused by Septoria tritici in the microtiterplate test; type: cell-based; conditions: 31 ppm, MTP, relative to active compound-free control (100%)
[9] = tested on: Sclerotinia sclerotiorum; assay: Preventative fungicidal control of white mold on soybeans caused by Sclerotinia sclerotiorum (green house); type: in vivo; conditions: assessed after 6 days
[10] = tested on: Alternaria solani; assay: Activity against Alternaria solani in the microtiterplate test; type: cell-based; conditions: 31 ppm, MTP, relative to active compound-free control (100%)

Structure (SMILES)	growth of the pathogen [1]	growth of the pathogen (% diseased leaf area) ([5]; 125 ppm)	growth of the pathogen (% diseased leaf area) ([7]; 125 ppm)	growth of the pathogen [10]	other results
Cc1c(C2=N[C@@H](C)C(C)(C)Oc3c(F)cccc32)cnc2ccccc12 [Ex-11]	up to 1%	–	–	–	–
C[C@@H]1N=C(c2cnc3c(F)c(F)ccc3c2)c2cccc(F)c2OC1(C)C [Ex-7, (3S)-5-(7,8-difluoro-3-quinolyl)-9-fluoro-2,2,3-trimethyl-3H-1,4-benzoxazepine]	up to 1%	less than 4%	–	–	growth of the pathogen [2]: up to 12%; growth of the pathogen [3]: up to 5%; growth of the pathogen [4]: up to 19%; growth of the pathogen (% diseased leaf area) [6]: less than 12%
C[C@@H]1N=C(c2cnc3c(F)cccc3c2)c2cccc(F)c2OC1(C)C [Ex-3, (3S)-9-fluoro-5-(8-fluoro-3-quinolyl)-2,2,3-trimethyl-3H-1,4-benzoxazepine]	–	–	–	–	growth of the pathogen (% diseased leaf area) ([7]; 63 ppm): less than 4%; growth of the pathogen (% diseased leaf area) ([5]; 250 ppm): less than 3%; growth of the pathogen [8]: up to 15%
C[C@@H]1N=C(c2cnc3ccccc3c2)c2cccc(F)c2OC1(C)C [Ex-4, (3S)-9-fluoro-2,2,3-trimethyl-5-(3-quinolyl)-3H-1,4-benzoxazepine]	–	–	–	–	growth of the pathogen (% diseased leaf area) ([7]; 63 ppm): less than 4%; growth of the pathogen (% diseased leaf area) ([9]; 250 ppm, untreated 100%): less than 11%; growth of the pathogen (% diseased leaf area) ([5]; 250 ppm): less than 3%; growth of the pathogen [8]: up to 15%
Cc1c(C2=N[C@@H](C)C(C)(C)Oc3ccccc32)cnc2ccccc12 [Ex-10]	up to 1%	less than 4%	less than 20%	–	–
Cc1nc2c(F)c(F)ccc2cc1C1=N[C@@H](C)C(C)(C)Oc2ccccc21 [Ex-8]	up to 1%	less than 4%	–	up to 20%	–
Cc1c(C2=N[C@@H](C)C(C)(C)Oc3ccccc32)cnc2c(F)cccc12 [Ex-12]	up to 1%	less than 4%	less than 20%	up to 20%	–
Cc1c(C2=N[C@@H](C)C(C)(C)Oc3c(F)cccc32)cnc2c(F)cccc12 [Ex-13]	up to 1%	less than 4%	less than 20%	up to 20%	growth of the pathogen (% diseased leaf area) ([9]; 125 ppm, untreated 80%): less than 21%; growth of the pathogen [4]: up to 19%; growth of the pathogen (% diseased leaf area) [6]: less than 12%
